{"source": "PubChem BioAssay AID1345083", "about": "(National Center for Advancing Translational Sciences (NCATS), 2018)", "note": "Several values for one entry are separate records, joined by “and”; a condition that tells them apart may be missing. Identical values can stand only once. Hit rate of the full screen: of about 94,000 compounds, about 6,200 (6.6%) were called active. The shares of active, inactive and inconclusive entries below differ from those in the screen. The call rests on the fitted dose curve; in most records, active means well fitted inhibition curve with a large enough effect; inconclusive means small, poorly fitted or top-dose-only effect; inactive means flat fitted curve, though single readings scatter. A potency beside an inconclusive call is a rough fit, not a confirmed value. On the % scale 0 is the no-effect control and ±100 the full control effect; potency means the concentration at half of the fitted maximal effect; tags describe the fitted curve by direction and shape.", "data": [{"experiment": "Cytotoxic Profiling in HEK 293 Cell Line of Diverse Libraries Using Quantitative High-Throughput Screening; further: nearly all actives have a fitted effect of over 60% in size", "settings": "HEK 293 viability, ATP luminescence (CellTiter-Glo), 48-72 h; activity change, negative = cytotoxicity: at 115 µM (top of the series) unless noted; series mostly up to 115 µM", "procedure,_shortened": "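250 HEK 293 cells/well; compound by pintool; incubated 48 or 72 hr at 37 degree Celsius; CellTiter-Glo added, 10 min RT, luminescence imaged.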", "values": [{"compound": "C=CCNC(=O)N[C@H]1CO[C@H]2[C@@H]1OC[C@@H]2Nc1nccc(-c2ccc(OC)cc2)n1", "Potency": "active: 89.1 µM"}, {"compound": "COCCn1c(=O)c(C(=O)N2CCN([S+](=O)([O-])c3c(C)noc3C)CC2)nc2cccnc21", "outcome": "inactive"}, {"compound": "COc1ccc(-c2cc(C(=O)NCC(C)C)c3cnn(C)c3n2)cc1", "Potency": "inconclusive: 126 µM [inhibitor, single point]"}, {"compound": "COc1ccc(N2Cc3c(NCCOc4ccccc4)ncnc3N(C)CC2=O)cc1", "Potency": "inconclusive: 50.1 µM [inhibitor, partial curve, poor fit]"}, {"compound": "CCC(CC)C(=O)N1C[C@@H](CO)[C@@H]2Oc3ccc(Cl)cc3[C@@H]21", "Potency": "inconclusive: 10 µM [inhibitor, full curve, poor fit]"}, {"compound": "CC(C)(C)C(=O)N1CCC(c2nnc(Cn3cncn3)n2C2CC2)CC1", "outcome": "inactive"}, {"compound": "Cc1nn(-c2ccccc2)c2c1C(C)N(C1CCCN([S+](C)(=O)[O-])C1)C2=O", "note": "(stereo not given)", "activity change, negative = cytotoxicity": "inactive: -3.13%"}, {"compound": "CCN1C(=O)CCc2cc(NC(=O)c3cccc(C#N)c3)ccc21", "Potency": "inconclusive: 50.1 µM [inhibitor, partial curve, poor fit]"}, {"compound": "CCc1nc2c(c(-c3ccc(OC)cc3)n1)CCN(Cc1ccc(C(F)(F)F)cc1)CC2", "Potency": "inconclusive: 39.8 µM [inhibitor, partial curve, poor fit]"}, {"compound": "COc1cc(OC)cc(C(=O)N2CCCC(c3noc(COc4ccccc4)n3)C2)c1", "note": "(stereo not given)", "Potency": "inconclusive: 50.1 µM [inhibitor, partial curve, poor fit]"}, {"compound": "CC1(C(=O)Nc2ccccc2F)COCc2cnc(Nc3ccccc3)nc21", "note": "(stereo not given)", "Potency": "inconclusive: 100 µM [inhibitor, partial curve, poor fit]"}, {"compound": "COc1ccc(-c2cccc(C(=O)N3CCC(c4ccccc4)CC3)c2)nn1", "Potency": "inconclusive: 56.2 µM [inhibitor, partial curve, poor fit]"}, {"compound": "COc1cccc(CNC(=O)c2ccc(-c3ccc(N4CCSCC4)nc3)cc2)c1", "Potency": "inconclusive: 25.1 µM [inhibitor, full curve]"}, {"compound": "CC(=O)N1CCC2(CC1)CN(C(=O)Cc1c(C)noc1C)Cc1ccccc1O2", "activity change, negative = cytotoxicity": "inactive: 0.748%"}, {"compound": "CN(Cc1ccc(-n2cccn2)cc1)CC1CCN(CCc2ccc(F)cc2)CC1", "Potency": "inconclusive: 44.7 µM [inhibitor, partial curve, poor fit]"}, {"compound": "COCCCN1C(=O)CC[C@H]2CN(C(=O)Cn3cccnc3=O)CC[C@H]21", "Potency": "inconclusive: 89.1 µM [inhibitor, single point]"}, {"compound": "COc1ccc(-c2ccccc2)cc1N1C(=O)[C@@H]2C[C@H]1CN2Cc1nc[nH]c1C", "Potency": "inconclusive: 56.2 µM [inhibitor, partial curve, poor fit]"}, {"compound": "CCc1nc(-c2c3n(c(=O)n(CC(=O)Nc4cccc(OC)c4)c2=O)CCCC3)no1", "activity change, negative = cytotoxicity": "inactive: -0.795%"}, {"compound": "O=[S+]([O-])(c1cccc(C(F)(F)F)c1)N1CC(CNc2cccnc2)C2(CN(c3ccccc3)C2)C1", "note": "(stereo not given)", "Potency": "inconclusive: 22.4 µM [inhibitor, full curve, poor fit]"}, {"compound": "CC(C)(C)c1ccc(C(=O)Nc2nc3c(s2)C[C@@H]2[C@](C)(CO)[C@H](O)CC[C@@]2(C)[C@@H]3CC(=O)NC2CC2)cc1", "Potency": "active: 44.7 µM"}, {"compound": "COc1ccc(C(=O)N2CCCCC2CCn2cc(-c3ccccc3)nn2)cc1", "note": "(stereo not given)", "Potency": "inconclusive: 56.2 µM [inhibitor, partial curve, poor fit]"}, {"compound": "Cc1ccc(C(=O)N2C(C(=O)N3CCOCC3)COC23CCN(C(=O)c2ccccc2C)CC3)cc1", "note": "(stereo not given)", "activity change, negative = cytotoxicity": "inactive: -4.61%"}, {"compound": "O=C(NCCc1ccccc1)N1CC[C@@H]2COC(=O)N(Cc3ccccc3)[C@@H]2C1", "Potency": "inconclusive: 39.8 µM [inhibitor, partial curve, poor fit]"}, {"compound": "COCCN1C[C@H]2CN(C)c3ccccc3[C@@H]2N(C(=O)c2ccc(C)cc2)CCC1=O", "Potency": "inconclusive: 35.5 µM [inhibitor, partial curve, poor fit]"}, {"compound": "Cn1cc(-c2ccc(O)c(F)c2)c2nc(COc3ccc(Cl)cc3)cn2c1=O", "Potency": "active: 31.6 µM"}, {"compound": "CCOC(=O)[C@@H]1CN(C(=O)C2CC2)[C@H]2c3cccc(C)c3O[C@@H]12", "activity change, negative = cytotoxicity": "inactive: -23.5%"}, {"compound": "CC(C)(Oc1nn(CC2CC2)c2ccc(CN3CCCC3)cc12)C(=O)NCC(F)(F)F", "Potency": "inconclusive: 112 µM [inhibitor, single point]"}, {"compound": "O=C(NC1CCN(c2cc(-c3ccccc3)[nH]n2)CC1)c1ccc2ncccc2c1", "Potency": "inconclusive: 89.1 µM [inhibitor, single point]"}, {"compound": "O=C(NCCc1ccccc1)c1ccc2nnc(-c3cccnc3)n2c1", "Potency": "inconclusive: 126 µM [inhibitor, single point]"}, {"compound": "CC(C)c1noc(-c2cn(C3CCN(C(=O)c4cccc(C#N)c4)C3)nn2)n1", "note": "(stereo not given)", "Potency": "inconclusive: 89.1 µM [inhibitor, single point]"}, {"compound": "Cc1ccc(CN2CCC3(CC2)Cc2ccccc2CNC3=O)cc1C", "Potency": "inconclusive: 56.2 µM [inhibitor, partial curve, poor fit]"}, {"compound": "Clc1cc(Cl)cc(NC2CNC2)c1", "Potency": "active: 63.1 µM"}, {"compound": "CCOC(=O)c1ccc(N2CCN(CC3=CC(C)(C)Oc4ccc(OC)cc43)CC2)cc1", "Potency": "inconclusive: 79.4 µM [inhibitor, partial curve, poor fit]"}, {"compound": "O=C1N(C2CCCCC2)C[C@H]2CN(S(=O)(=O)c3ccc(F)cc3)CCN12", "Potency": "inconclusive: 63.1 µM [inhibitor, full curve]"}, {"compound": "Cc1noc(C)c1-c1cc2cc(CO)oc2c(NCCN2CCOCC2)n1", "Potency": "inconclusive: 70.8 µM [inhibitor, partial curve, poor fit]"}, {"compound": "CS(=O)(=O)N1CCc2ccc(C(=O)Nc3ccc(Oc4ccccc4)cc3)cc21", "Potency": "inconclusive: 7.94 µM [inhibitor, full curve, poor fit]"}, {"compound": "CCCN1C(=O)CCc2cc(NC(=O)Cc3c(F)cccc3Cl)ccc21", "Potency": "inconclusive: 56.2 µM [inhibitor, partial curve, poor fit]"}, {"compound": "CCCN1CCC2(CCN(C(=O)c3cccc(Cl)c3)CC2)Oc2ccccc21", "Potency": "inconclusive: 50.1 µM [inhibitor, partial curve, poor fit]"}, {"compound": "CN1C[C@@H](NS(=O)(=O)c2ccc(Cl)cc2)C[C@H]1c1nc(-c2ccc(F)cc2)no1", "Potency": "inconclusive: 50.1 µM [inhibitor, partial curve, poor fit]"}, {"compound": "COc1ccc(CN2C[C@H](O)C[C@H]2c2nc(-c3ccc(C)c(F)c3)no2)cc1", "Potency": "inconclusive: 100 µM [inhibitor, partial curve]"}, {"compound": "Cc1ccc(-c2ccc3nnc(CNC(=O)c4c(F)cccc4F)n3n2)cc1", "activity change, negative = cytotoxicity": "inactive: -29.4%"}, {"compound": "CC(C)(C)NC(=O)NCc1cc2n(n1)CCCN(C(=O)C1CCC1)C2", "activity change, negative = cytotoxicity": "inactive: -2.7%"}, {"compound": "CCc1noc(C)c1C(=O)N1CCC(CCC(=O)NCc2cccc(C(F)(F)F)c2)CC1", "Potency": "inconclusive: 28.2 µM [inhibitor, full curve, poor fit]"}, {"compound": "Cc1nn(-c2ccccc2)c(C)c1[C@@H]1C=C[C@@H](NC(=O)c2ccc(N(C)C)cc2)C1", "Potency": "active: 70.8 µM"}, {"compound": "COc1cccc(-c2cn3cc(C(=O)NCc4ccccc4)nc3s2)c1", "Potency": "inconclusive: 39.8 µM [inhibitor, partial curve]"}, {"compound": "Cn1cccc1CN1CCC12Cc1ccccc1NC2=O", "note": "(stereo not given)", "Potency": "inconclusive: 126 µM [inhibitor, single point]"}, {"compound": "COCCNC(=O)[C@@H]1Cc2cn(Cc3ccncc3)c3cccc(c23)[C@H](CC(C)C)N1", "Potency": "active: 44.7 µM"}, {"compound": "COc1ccc(-c2ccnc(N[C@H]3CO[C@H]4[C@@H]3OC[C@@H]4NC(=O)Nc3cccc(C(F)(F)F)c3)n2)cc1", "Potency": "active: 39.8 µM"}, {"compound": "CNc1nccc(N2CCC(CC(=O)N(C)Cc3cn(C)nc3C)CC2)n1", "Potency": "inconclusive: 8.91 µM [inhibitor, full curve, poor fit]"}, {"compound": "O=C(Nc1cccc(-c2ccc(N3CCOCC3)nn2)c1)Nc1ccc(F)cc1F", "Potency": "inconclusive: 56.2 µM [inhibitor, partial curve, poor fit]"}, {"compound": "CN(C)[S+](=O)([O-])c1ccc2c(c1)OCCN(Cc1ccc(F)cc1F)C2", "Potency": "inconclusive: 89.1 µM [inhibitor, partial curve]"}, {"compound": "O=C(c1ccc2ccccc2n1)N1CCC(n2cc(-c3nc(-c4ccccc4)no3)nn2)C1", "note": "(stereo not given)", "Potency": "inconclusive: 50.1 µM [inhibitor, partial curve, poor fit]"}, {"compound": "Cc1noc(C)c1-c1cc2cc(C(C)C)oc2c(NC2CCN(C)CC2)n1", "Potency": "active: 31.6 µM"}, {"compound": "COc1ccc(-c2ccc(C(=O)NCC(F)F)cc2)nn1", "Potency": "inconclusive: 31.6 µM [inhibitor, full curve] and inconclusive: 39.8 µM [inhibitor, partial curve, poor fit]"}, {"compound": "COc1ccc(Cc2nc3nccc(-c4ccc(F)cc4)n3n2)cc1", "Potency": "inconclusive: 50.1 µM [inhibitor, partial curve, poor fit]"}, {"compound": "O=C(c1cc(Cl)ccc1F)N1CCCC(n2cc(-c3nc(-c4ccccc4)no3)nn2)C1", "note": "(stereo not given)", "Potency": "active: 31.6 µM"}, {"compound": "O=C(COc1ccccc1Cl)N1CCCC(O)(CN2CCCC2)C1", "note": "(stereo not given)", "activity change, negative = cytotoxicity": "inactive: -7.09%"}, {"compound": "COc1ccc(CN2C(=O)CO[C@H]3CN(Cc4ccc5c(c4)OCO5)C[C@H]32)cc1", "Potency": "inconclusive: 50.1 µM [inhibitor, partial curve, poor fit]"}, {"compound": "COc1ccc(CN2C[C@@H]3C[C@@H](C(N)=O)N(C(=O)C4CCCC4)c4cccc(c43)C2=O)cc1", "activity change, negative = cytotoxicity": "inactive: -15.3% [at 57.5 µM]"}, {"compound": "CCOc1ccccc1CNC(=O)c1cc2n(n1)CC(c1ccc(Cl)cc1)OC2", "note": "(stereo not given)", "Potency": "active: 25.1 µM"}]}]}
